The structures appear in SMILES notation. In all, about 110,000 compounds were measured (“z-score”: median about -0.1, highest 2% from about 2 on). The list shows a part of the results.

This assay concerns the target Metabotropic glutamate receptor 8 (Rattus norvegicus) (UniProt P70579). Kind of assay: mGluR8 Gi/Go-coupled signaling modulation – cell-based, rat, thallium flux, HTS, primary screen (AID 488969). The following applies: HEK293 rat mGluR8, GIRK (G protein-gated inwardly rectifying potassium channel) thallium flux, FluoZin2; at 10 µM; stronger effect = higher value; submaximal glutamate (EC20) added with thallium.
Sequence of UniProt P70579 (P70579 whole entry, looked up): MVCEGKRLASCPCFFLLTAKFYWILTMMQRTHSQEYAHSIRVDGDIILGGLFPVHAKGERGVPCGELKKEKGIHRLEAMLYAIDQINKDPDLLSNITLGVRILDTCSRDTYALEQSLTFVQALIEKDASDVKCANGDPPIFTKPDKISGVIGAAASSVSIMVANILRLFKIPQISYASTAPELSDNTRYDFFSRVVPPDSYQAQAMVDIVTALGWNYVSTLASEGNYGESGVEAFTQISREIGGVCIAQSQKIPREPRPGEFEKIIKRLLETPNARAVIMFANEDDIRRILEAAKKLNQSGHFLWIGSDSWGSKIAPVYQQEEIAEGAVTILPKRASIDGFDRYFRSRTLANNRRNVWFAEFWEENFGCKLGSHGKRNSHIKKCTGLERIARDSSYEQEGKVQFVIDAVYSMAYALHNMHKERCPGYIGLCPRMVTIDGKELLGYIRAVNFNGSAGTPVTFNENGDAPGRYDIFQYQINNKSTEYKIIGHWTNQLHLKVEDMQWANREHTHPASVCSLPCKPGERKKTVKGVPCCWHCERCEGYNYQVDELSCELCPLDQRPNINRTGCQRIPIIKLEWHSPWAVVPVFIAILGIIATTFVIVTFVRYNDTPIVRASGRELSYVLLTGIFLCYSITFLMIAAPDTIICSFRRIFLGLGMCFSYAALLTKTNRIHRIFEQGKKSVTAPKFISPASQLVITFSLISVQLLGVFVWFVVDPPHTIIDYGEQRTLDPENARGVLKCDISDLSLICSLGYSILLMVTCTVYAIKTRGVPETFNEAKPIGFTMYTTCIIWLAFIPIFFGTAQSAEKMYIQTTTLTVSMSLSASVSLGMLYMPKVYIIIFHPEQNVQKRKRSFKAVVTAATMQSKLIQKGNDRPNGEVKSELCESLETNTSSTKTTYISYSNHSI
The compound `O=C1CC(NNc2nc3ccccc3s2)C(=O)N1c1ccccc1` (centres undefined) came in with a z-score of 0.181.
With `c1ccc(OCCSc2nc3ccccc3o2)cc1`, the z-score came out at 0.228.
For `O=C(OCCn1cncn1)c1cc2ccccc2oc1=O` the value was -0.3; for `CCC(=O)c1ccc(OCCSc2ncccn2)cc1`, -0.0986.
Compound `O=C(Nc1cc(C(F)(F)F)ccc1N1CCOCC1)c1cn2ccccc2n1` gave a z-score of -0.314.
The compound `O=[N+]([O-])c1cc(/C=N/O)ccc1SCc1ccccc1Cl` gave a z-score of -0.158.
As for `CC(=O)c1c(O)cc(C)n(Nc2nc(C)cc(C)n2)c1=O`, the z-score is -0.103.
For the compound `CCc1ccc(-n2c(O)c(C=NCCN(CC)CC)c(=O)[nH]c2=O)cc1`, the z-score is -0.174.
As for `CCC(CC)C(=O)NC12CC3CC(CC(C3)C1)C2`, the z-score is -0.274.
For the compound `Cc1cc(NC(=O)CSc2nc3sc(C)c(C)c3c(=O)n2C2CCCC2)no1`, the z-score was 0.0759.
For `CCOCC(=O)Nc1nnc(COCC)s1` the value was 0.935.
Take `Cc1cc(C)n2ncc(C(=O)NCc3cccnc3)c2n1`: the z-score is 1.28.
In turn, `O=C(CN1CCC(N2CCCCC2)CC1)N1CCCc2ccccc21` registered a z-score of -0.0225.
To `O=C(Cc1ccc(-n2c(=O)[nH]c3ccccc3c2=O)cc1)N1CCN(c2cccc(Cl)c2)CC1` belongs 0.0665.
For `COc1ccccc1N1CCN(c2cc(N3CCCC3)nc(C)n2)CC1` the value was -1.03.
For `O=C(Nc1ccccc1)/C(=C\c1ccc2c(c1)OCO2)NC(=O)c1ccco1` the value was -0.0407.
The compound `Cc1nn(-c2ccc([N+](=O)[O-])cc2)c2c1C(c1cccc(Br)c1)N1C(=N2)C(=O)Nc2ccccc21` (centres undefined) registered a z-score of -0.118.
The compound `O=C(Nc1cccc(Cl)c1N1CCCC1)c1cc2ccccc2o1` displayed a z-score of 0.0526.
In the case of `COCCCNc1nc2c(c(=O)n(C)c(=O)n2C)n1Cc1cccc(OC)c1`, the z-score is -0.0153.
`N/C(Cc1ccc(Cl)cc1Cl)=N\OC(=O)Cc1ccccc1` gave a z-score of 0.0368.
As to `Cc1cccc(Cn2ncc(Cl)c(Cl)c2=O)c1`, the z-score is -0.219.
Take `CC(C)(C)C1CC=C2C(C#N)=C(N)C(C#N)(C#N)C(c3cccs3)C2C1` (centres undefined): the z-score worked out at 0.0392.
For `Cc1cc(C)c(-c2csc(NC(=O)/C=C/c3cccs3)n2)c(C)c1` the value was 0.751; for `Cc1ccc(N2C(=O)C3N=NN(CC(=O)N4N=C(c5cccc6ccccc56)CC4c4ccccc4)C3C2=O)cc1` (centres undefined), 0.269; for `Cn1c(Cn2nnc3ccccc32)nnc1SCC(=O)N1c2ccccc2CCc2ccccc21`, -0.396.
Consider `COc1ccccc1N1CCN(C(=O)C2CCN(S(=O)(=O)c3ccccc3)CC2)CC1`, for which the z-score was -0.5.
Turning to `Cc1ccc(S(=O)(=O)N(C)CCCC(=O)Nc2cccc3ccccc23)cc1`, the z-score is -0.456.
As to `COc1cc(C2C(C(=O)OC(C)C)=C(C)Nc3[nH]c(=O)[nH]c(=O)c32)ccc1O` (centres undefined), the z-score is -0.0345.
Take `CCOC(=O)c1cc(NC(=O)COc2ccc([N+](=O)[O-])cc2)cc(C(=O)OCC)c1`: the z-score was -0.0752.
`CCC(=O)N(Cc1cc2cc(OC)ccc2[nH]c1=O)c1ccccc1C` gave a z-score of -0.0448.
As for `CCc1ccc(-c2nc(CSCC(=O)N3CCN(c4ccccn4)CC3)c(C)o2)cc1`, the z-score is -1.53.
For `COC(=O)C(CC(C)C)NC(=O)/C=C/c1ccccc1Cl` (centres undefined) the value was 1.32; for `COc1ccc2oc(C(F)(F)C(F)(F)F)cc(=O)c2c1`, -0.09.
Consider `COC(=O)c1nn(-c2ccccc2)c(-c2ccccc2)c1C(=O)c1ccccc1`, for which the z-score is -0.523.
The compound `Cc1ccc(SCc2[nH]nc3c2C(c2ccco2)C(C#N)=C(N)O3)cc1` (centres undefined) gave a z-score of -0.0516.
The compound `CC(/C=N/Nc1nnc(C)c(=O)[nH]1)=C\c1ccccc1` gave a z-score of 0.334.
With `O=C(CN1CCCCC1)N1c2ccccc2Sc2ccc(C(F)(F)F)cc21`, the z-score amounted to 0.37.
The compound `COc1cccc(C=Nc2ccccc2C#N)c1O` returned a z-score of -0.48.
Consider `Cc1ccc(NC(=O)CCC(=O)NNS(=O)(=O)c2ccccc2)c(C)c1`, for which the z-score was -0.19.
For `CCOC(=O)c1cnn(-c2ccccc2)c1-n1cccc1C(=O)C(=O)Nc1ccccc1` the value was -0.123; for `O=C(NCc1cccs1)c1ccc(N2CCCCC2)nc1`, -0.0683; for `COc1ccc(-c2noc(CSc3nc4ccccc4c(=O)n3-c3ccccc3)n2)cc1`, 0.0539.
As to `N#CC(c1ccccc1)N(CCCCl)C(=O)c1ccc(Br)cc1` (centres undefined), the z-score is -0.943.
For the compound `N#Cc1cccc(NC(=O)CCn2ccnc2)c1`, the z-score was -0.0613.
For `Cc1ccc2[nH]c3c(c2c1)CCCC3=O` the value was -0.217.
Regarding `Cc1ccc(NC(=O)N2CCC(=O)N2)cc1`, the z-score is -0.134.
For the compound `O=c1[nH]c2ccc(S(=O)(=O)Nc3ccc(-c4nnc5n4CCCCC5)cc3)cc2o1`, the z-score worked out at 0.32.
`CN(CC(=O)Nc1cccc2c1CCCC2)S(=O)(=O)c1ccc(Br)cc1`: the z-score is 0.0643.
The compound `Cn1c(=O)oc2cc(S(=O)(=O)N3CCC(C(=O)N4CCc5ccccc5C4)CC3)ccc21` had a z-score of -0.202.
On to `O=C(c1ccco1)N1CCN(/C(=N/S(=O)(=O)c2cccs2)c2ccccc2Cl)CC1`, for which the z-score is -0.366.
`N/C(=N\OC(=O)c1cccc(Br)c1)c1ccccc1` had a z-score of -0.149.
To `CCOCCOC(=O)C1=C(C)NC2=C(C(=O)CC(c3cccs3)C2)C1c1ccsc1` (centres undefined) belongs -0.338; to `CC(=O)Nc1c(C(=O)c2ccccc2)oc2ccccc12`, -1.06.
In the case of `O=C(O)CCCC(=O)Nc1cccc2cccnc12`, the z-score is 0.291.
The compound `O=C(CN1C(=O)c2ccccc2C1=O)NN1C(=O)c2ccccc2C1=O` yielded a z-score of -0.0861.
In turn, `O=C(CSc1cccc[n+]1[O-])Nc1cc(S(=O)(=O)N2CCOCC2)ccc1Cl` came in with a z-score of -0.237.
With `CCCSc1nc(N2CCCC2)c2c(c1C#N)CC(C)(C)OC2`, the z-score is 0.643.
The compound `Cc1ccc(C(=O)NCCNc2ccc(Cl)cc2[N+](=O)[O-])o1` registered a z-score of -0.083.
With `O=C(NC1CCCCCCC1)C1CCN(c2nc3ccccc3o2)CC1`, the z-score is -0.284.
`Cc1sc2ncnc(SCC(=O)c3ccc(Cl)s3)c2c1C` registered a z-score of 1.06.
In the case of `NC1=NC(=O)/C(=C\C=C\c2ccccc2)S1`, the z-score is -0.284.
For `COc1ccc(Cn2nnnc2C(c2cc3ccc(OC)cc3[nH]c2=O)N2CCCCCC2)cc1` (centres undefined) the value was 0.352; for `CCOC(=O)c1c(-c2ccccc2)csc1NC(=S)NC(=O)c1ccccc1`, 1.06.
Consider `COc1ccc(C2C(C#N)=C(N)OC3=C2C(=O)CC(C)(C)C3)c([N+](=O)[O-])c1OC` (centres undefined), for which the z-score came to 0.0302.
`COc1ccc(OCCCC(=O)Nc2cc([N+](=O)[O-])ccc2C)cc1` gave a z-score of 0.716.
For the compound `CCOC(=O)N1CCN(C(=O)c2ccc(-n3c(C)ccc3C)cc2)CC1`, the z-score was -0.0922.
Consider `COc1cc(/C=N/O)cc(Br)c1OCC(=O)NCc1ccccc1`, for which the z-score was found to be 0.215.
For `COc1ccc(C(C)(C)C)cc1NC(=O)c1c(C)noc1C` the value was -0.421.
`CCOC(=O)CSc1ccc(S(=O)(=O)N(C)C2CCCCC2)cc1[N+](=O)[O-]` yielded a z-score of -0.248.
For `CCn1nnnc1Oc1ccc(Cl)cc1` the value was -0.341.
To `COC(=O)/C=C/C(=O)NCc1ccco1` belongs -0.16; to `CCC(=O)N1CCCn2c1nc1ccccc12`, 0.129.
In turn, `COc1ccc(NC(=O)CCOc2ccccc2)cc1` yielded a z-score of 0.0744.
Compound `CCOC(=O)C1CCN(S(=O)(=O)c2c(C)n(C)c(=O)n(C)c2=O)CC1` yielded a z-score of 0.114.
For `COc1ccccc1CNC(=O)CCCn1c(=O)c2ccccc2n(CC(=O)NC2CCCC2)c1=O` the value was -0.214; for `O=C(Nc1cnn(Cc2ccc(Cl)c(Cl)c2)c1)C12CC3CC(CC(C3)C1)C2`, -0.135.
For `Cc1cccc[n+]1CC(=O)/C=C1\N(C)c2ccccc2C1(C)C` the value was -0.11.
In the case of `CC(C)OCCCNC(=O)CN1C(=O)CC(C)(C)S(=O)(=O)c2ccccc21`, the z-score is -0.731.
The compound `O=C(c1ccc([N+](=O)[O-])cc1)N(C1=NCCCCS1)c1ccccc1` gave a z-score of 0.0339.
To `COc1ccc2c(c1)OC(c1ccccc1)(C(F)(F)F)NC2=O` (centres undefined) belongs -0.406; to `Cc1ccccc1S(=O)(=O)Nc1nc2ccccc2nc1NCCO`, 0.725.
On to `COc1cc(OC)cc(C(=O)NCCC(=O)NCCc2ccc(OC)c(OC)c2)c1`, for which the z-score is -0.893.
Turning to `CC(C)(C)NS(=O)(=O)c1ccc(CCC(=O)Nc2ccc3c(c2)OCCO3)cc1`, the z-score was -0.0964.
In turn, `COC(=O)c1cccc(NC(=O)/C=C/c2ccc3c(c2)OCO3)c1` had a z-score of -0.32.
`Oc1cc2c(cc1CN1CCN(c3cccc(C(F)(F)F)c3)CC1)CCC2` displayed a z-score of -0.0251.
The compound `O=C(COc1ccc(S(=O)(=O)N2CCCC2)cc1Cl)NC1CCCC1` gave a z-score of -0.0129.
Consider `Cc1sc(NC(=O)CSc2nnc(-c3ccc(F)cc3)o2)c(C#N)c1C`, for which the z-score was -0.213.
Compound `O=C(Nc1ccc(F)cc1)c1sccc1SCc1cccc(C(F)(F)F)c1` gave a z-score of -0.0682.
To `Cc1ccc(OCC(=O)NN2C(=O)c3ccccc3C2=O)c(C)c1` belongs -0.11; to `O=C(CCN1C(=O)C2C3C=CC(C3)C2C1=O)NCc1cccnc1` (centres undefined), 0.0149; to `Cc1onc(-c2ccccc2Cl)c1C(=O)Nc1ccc(-c2nnc3n2CCCCC3)cc1`, -0.361.
In turn, `COc1ccccc1C(=O)NC(=S)N1CCCc2ccccc21` had a z-score of -0.0293.
With `C/C(=N/Nc1ccc(C(=O)O)cc1)c1ccc(O)c(O)c1O`, the z-score is -0.383.
Compound `CN1C(=S)SC(/[N+]([O-])=C\c2ccc(Cl)cc2)C1(C)C` (centres undefined) yielded a z-score of -0.365.
In turn, `CC(C)Cn1cnc2c1c(=O)n(CC(O)c1ccccc1)c(=O)n2CC(C)C` (centres undefined) returned a z-score of -0.206.
`O=C(N1CCOCC1)N1CCCN(C(=O)N2CCOCC2)CC1` returned a z-score of -0.237.
`C/C(Cc1ccccc1)=N\NC(=O)c1ccc(F)cc1` showed a z-score of 0.49.
In the case of `CC(C)c1ccc2c(c1)C(=O)NC(C)(C)C2`, the z-score was -0.156.
On to `COc1ccccc1CCNC(=O)CCSc1nc(-c2ccco2)cc(C(F)(F)F)n1`, for which the z-score is -0.294.
For `O=C(CSc1nnc(Nc2ccccc2)s1)NCc1cccs1` the value was -0.304.
Regarding `CCCN(CCC)C(=O)c1ccccc1C(=O)N(CCC)CCC`, the z-score was -0.328.
To `CCOC(=O)N1CCN(C(=O)C2CCN(S(=O)(=O)c3ccc(C)cc3)CC2)CC1` belongs -0.0746; to `CN(/N=C/c1c[nH]c2ccccc12)c1cnn(-c2ccc(F)c(Cl)c2)c(=O)c1Cl`, -0.0271; to `CCNc1nc(Oc2ccccc2)nc(OC(C)C(=O)OCC)n1` (centres undefined), -0.197.
As for `COc1cccc(S(=O)(=O)Nc2cccnc2)c1`, the z-score came out at 0.144.
`CC(=O)Nc1ccc(C(=O)CSc2cc(C)c3cccc(C)c3n2)cc1` returned a z-score of -0.182.
`O=C(CCn1c(=O)oc2ccccc21)N1CCN(c2ccccc2F)CC1` showed a z-score of 0.462.
In turn, `COCCn1c(CCC(=O)O)nc2c1c(=O)[nH]c(=O)n2CC(C)C` returned a z-score of 0.385.
`CC(C)NC(=O)/C(=C\c1cccc([N+](=O)[O-])c1)NC(=O)c1ccccc1` came in with a z-score of -0.0665.

For the origin of these results see PubChem BioAssay AID488969 (Vanderbilt High Throughput Screening Facility, 2010).
